This passage reports TGI and GI50 results from PubChem BioAssay (NCI).

Values joined by “and” are separate entries in the source; they are usually repeats but may differ in a detail not shown here. Equal values may be shown once.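 Assay format: 96-well plates, 48-hour exposure. GI50 is the concentration that inhibits growth by half. Definition used: TGI = concentration required for complete inhibition of growth.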 Bridge positions count the residues as written; N and C are the ends. Square brackets hold non-standard residues; d marks the D form. Peptide text beside a SMILES is read from it. ξ: configuration not given here. ξThr(3R) = C[C@@H](O)C(N)C(=O)O; S5 = C=CCCC[C@](C)(N)C(=O)O Some results are limits rather than exact numbers.

For the experiment, the system named is NCI-H322M lung. Kind of experiment: NCI tumour cell line growth inhibition, 48 h.

Consider `Cc1cc(=O)n(-c2c(C)cccc2Cl)c(/C=C(\O)c2ccncc2)n1`, for which the TGI was more than 100 µM.
On to `COC(=O)C1C(=O)O[C@@H](c2ccc(OC)c(OC)c2OC)C1C(=O)OC` (mixture of isomers), for which the TGI was more than 100 µM.
Same read-out and setting: as for `COc1cc(-c2ccc(NC(=O)SCCC(=O)O)cc2OC)ccc1NC(=O)SCCC(=O)O`, the figure is more than 100 µM; as for `C=C1C(=O)O[C@H]2C/C(C)=C/CC[C@]3(C)CCC[C@](C)(CC[C@@H]12)O3`, more than 50 µM.
Still for that read-out and setting: for `Cn1c2[n+](c3nc(N)[nH]c(=O)c31)C1OC(C2)C(O)C1O` (configuration not stated) the value was more than 100 µM.
For the compound `CCN(CC)CCC(CNc1ccnc2cc(Cl)ccc12)c1ccccc1` (configuration not stated), the GI50 was 12.4 µM and the TGI is 51.1 µM.
`COC(=O)C1(C)CC2C(C)(CCC3(C)C4=CC=C5C(=CC(=O)C(O)=C5C)C4(C)CCC23C)CC1O` (configuration not stated) had a TGI of 7.6 µM.
The same measure, in the same setting: for `Cc1cccc(/C=N\NC(=S)N2CCCCC2)n1` the value was more than 100 µM; for `O=C1NC(=S)NC(=O)C1=Cc1ccc(-c2ccccc2)cc1`, more than 100 µM.
For `CCCCN=C(N)c1ccc(N2CCCN(c3ccc(C(N)=NCCCC)cc3)CC2)cc1`, the GI50 was 20 µM and the TGI worked out at 90.3 µM.
In turn, `O=C(/C=C1\N=C(c2ccccc2)N(c2nc3c(Cl)cc(Cl)cc3s2)C1=O)/C=C/c1ccccc1` displayed a TGI of more than 100 µM.
The same measure, in the same setting: for `CCOC(=O)c1nc2ccc(C(F)(F)F)cc2nc1Nc1ccc(F)cc1` the value was more than 100 µM; for `Cc1oc(N)c(S(=O)(=O)c2cc3ccccc3n(O)c2=N)c1C`, more than 100 µM.
For the compound `CCOc1ccc2c(c1)CN(Cc1ccc(Cl)cc1)CO2`, the GI50 is 20 µM and the TGI worked out at 55.7 µM.
Regarding `Cc1ccc2nc(-c3ccc(NC(=O)c4ccc(N)cc4)c(S(=O)(=O)O)c3)sc2c1`, the TGI is more than 100 µM.
Compound `Oc1cc(CN2CCOCCOCCOCCOCC2)c(O)cc1CN1CCOCCOCCOCCOCC1` had a TGI of more than 100 µM.
Turning to `CC1OC(OC2C(OC(=O)[C@]34CCC(C)(C)C[C@H]3C3=CC[C@@H]5[C@@]6(C)CC[C@H](OC7OC(CO)C(O)C(O)C7OC7OC(CO)C(O)C(O)C7O)C(C)(C)[C@@H]6CC[C@@]5(C)[C@]3(C)CC4)OCC(O)C2O)C(O)C(O)C1OC1OCC(O)C(OC2OCC(O)C(O)C2O)C1O` (some centres not stated), the TGI was 11.2 µM and 7.84 µM.
Still for that read-out and setting: as for `CCOC(=O)c1nc2ccccc2nc1Nc1ccc(OC)cc1`, the figure is more than 100 µM.
Compound `C[N+]1(CCC(=O)c2ccccc2)CCC2CCC(C2)C1` (configuration not stated) returned a TGI of more than 100 µM.
As to `O=c1c2ccccc2nc(-c2ccccc2Cl)n1-c1nnc(C(F)(F)F)s1`, the GI50 is 3.54 µM and the TGI came out at 24.5 µM.
`CN=C(N)N=Nc1c(O)[nH]c2ccccc12` showed a TGI of more than 100 µM.
Still for that read-out and setting: as for `O=C(N/N=C(/c1nc2ccc([N+](=O)[O-])cc2[nH]c1=O)C(O)c1ccc([N+](=O)[O-])cc1)c1ccncc1` (configuration not stated), the figure is more than 100 µM.
Consider `CC(c1ccccc1)[C@@H](C(=O)Nc1ccc(I)cc1F)N1C(=O)N[C@H](c2ccc(OC[C@H](O)CO)cc2)C1=O` (some centres not stated), for which the GI50 is 3.19 µM and the TGI was more than 25 µM.
With `CCc1[nH]c(=O)c2oc3cc4ccccc4cc3c2c1C(=O)O`, the TGI is more than 10 µM.
`Cc1cc(S(=O)(=O)NC2=NCCN2Cc2ccccc2)c(S)cc1Cl` came in with a TGI of more than 100 µM.
In turn, `CCOC(=O)c1nc2ccccc2nc1Oc1ccc(C#N)cc1` showed a TGI of more than 100 µM.
With `O=c1ccc(=O)n(-c2ccccc2)[nH]1`, the TGI is more than 100 µM.
In the case of `C[C@@H](NC(=O)c1ncnc(N)c1Cl)c1ncc(C(=O)Nc2cc(C(F)(F)F)c(Cl)cn2)s1`, the GI50 is 21.3 µM and the TGI is 72.2 µM.
As to `O=C1c2ccccc2C(=O)c2c1ccc1c(=O)n(-c3ccccc3C(F)(F)F)nnc21`, the GI50 was 2.58 µM and the TGI worked out at 7.97 µM.
Take `COc1ccc(-c2[nH]nc(N)c2-c2cc(OC)c3c(c2)OCO3)cc1`: the GI50 was 7.75 µM and the TGI was more than 100 µM.
In turn, `CCN1CCN(c2nc3ccccc3nc2C(=O)c2ccc(OC)c(OC)c2)CC1` had a TGI of more than 100 µM.
The compound `CCN(CC)c1ccc(C2NC(=O)c3ccccc3N2)cc1` (configuration not stated) yielded a TGI of more than 93.4 µM.
`CCOC(=O)/C(C#N)=C1\SS/C(=C(/C#N)C(=O)OCC)S1`: the GI50 was 29.6 µM and the TGI was determined as 82 µM.
Compound `CCOC(=O)c1sc2c(c1O)c(=O)n(-c1ccccc1)c(=S)n2-c1ccccc1` displayed a TGI of more than 100 µM.
In the case of `O=C(Cc1csc2nc(-c3ccc(Cl)cc3)cn12)N/N=C/c1ccccc1O`, the GI50 is 1.56 µM and the TGI was found to be 59.1 µM.
`CCOc1ccc(/C=C(\Cl)c2ccc(OC)cc2)cc1`: the TGI is more than 100 µM.
The same measure, in the same setting: as for `Cc1nc(N)c(-c2ccccc2)s1`, the figure is more than 100 µM; as for `NC(N)=NS(=O)(=O)c1ccc(NNC(=O)c2cccc3c(=O)c4ccccc4[nH]c23)cc1`, 58.1 µM; as for `Clc1ccc(OCc2nnc3n2N=C(c2ccc(Br)cc2)CS3)cc1`, more than 100 µM.
Compound `COc1cc(C2c3cc4c(cc3[C@@H](Nc3ccc(Oc5ccccc5)cc3)C3COC(=O)[C@H]23)OCO4)cc(OC)c1O` (some centres not stated) had a TGI of more than 100 µM.
Consider `C/C(=N/O)c1ccc2c(c1)/C(=N/O)c1ccccc1-2`, for which the GI50 was 24 µM and the TGI was 62.2 µM.
Take `N#Cc1ccccc1C#C/C=C\C#CC#C/C=C\C#Cc1ccccc1C#N`: the GI50 is 22 µM and the TGI worked out at 63.3 µM.
For `C/C(=N\n1c(O)c(C#N)cc(C#N)c1=O)c1ccncc1` the same measures were more than 100 µM and more than 100 µM.
Regarding `CCCCOCOc1ccccc1P1(=O)COc2ccccc2OC1`, the TGI is more than 100 µM.
In the case of `CN1CCN(c2ccc(NC(=O)c3cncnc3Nc3ccc(OCc4cccc(F)c4)c(Cl)c3)cc2)CC1`, the GI50 was 2.85 µM and the TGI was more than 50 µM.
In turn, `COc1c(O)cc2c(c1O)C(=O)C1=C(CCCC1)C2=O` registered a TGI of 70.8 µM.
In the case of `Nc1cc(C(F)(F)F)c(-c2cc(N3CCOCC3)nc(N3CCOCC3)n2)cn1`, the GI50 was 1.13 µM and 2.01 µM.
Consider `CCCCC(/C=C\COC1CCCCO1)=C/C(=O)OCC` (configuration not stated), for which the TGI is more than 100 µM.
In turn, `CN(C)Cc1ccc(C(C)(C)C)cc1-c1cc(C(C)(C)C)ccc1CN(C)C` showed a TGI of more than 100 µM.
With `CC(C)CC(NP(=O)(O)OC1OC(C)C(O)C(O)C1O)C(=O)NC(Cc1c[nH]c2ccccc12)C(=O)O` (configuration not stated), the TGI is more than 100 µM.
`COc1cccc(/C=C/c2ccnc3ccccc23)c1OC` returned a TGI of more than 10 µM.
`CSC1=C(C(=O)Nc2ccc(C)cc2)C(N)=NC1=O` yielded a TGI of more than 100 µM.
`COc1cccc(C=C2N=C(c3ccccc3)N(n3c(-c4ccccc4)nc4ccccc4c3=O)C2=O)c1` showed a TGI of more than 100 µM.
Regarding `CCCC(C)NC(=O)c1ccc(N(C)Cc2cnc3nc(N)nc(N)c3n2)cc1` (configuration not stated), the TGI was 69.6 µM.
As for `O=C(Nc1ccc(-n2ccc3c(NC(=O)c4ccccc4)nccc32)cc1)Nc1cccc(C(F)(F)F)c1`, the GI50 was 11.6 µM and the TGI stood at 30.9 µM.
`COc1cc(C2C(C(=O)Nc3ccc([N+](=O)[O-])cc3)=C(C)NC(C)=C2C(=O)Nc2ccc([N+](=O)[O-])cc2)ccc1O` gave a TGI of more than 54.9 µM.
The same measure, in the same setting: for `N/C(=N\N=C\c1cc(I)cc(I)c1O)NO` the value was more than 100 µM; for `CCCCCCCCCCCCCCCCc1c(C(=O)OC)nc(NN)[nH]c1=O`, more than 50 µM.
`COC1=C(OC)C(=O)C(Sc2ccc3ccccc3c2)=CC1=O` showed a TGI of 17.8 µM.
Same read-out and setting: for `O=C(Cn1c(=O)oc2ccc(C(=O)c3ccc(F)cc3)cc21)c1ccccc1` the value was more than 100 µM; for `CCN(CC)c1ccc(C2Nc3ccc4ccccc4c3C3=C2C(=O)CCC3)cc1` (configuration not stated), more than 100 µM.
The same measure, in the same setting: for `C/C(=N\NC(=S)NC(CCC(=O)O)C(=O)O)c1cnccn1` (configuration not stated) the value was more than 100 µM.
`Cc1cc(C)c2c(c1)N[S@@](=O)S2` showed a TGI of more than 100 µM.
`C[C@H](CS)C(=O)N1c2ccccc2C[C@H]1C(=O)O`: the TGI is more than 100 µM.
Consider `O=C(CC(c1ccccc1)C1C(=O)NC(=S)NC1=O)c1ccc([N+](=O)[O-])cc1` (configuration not stated), for which the TGI was more than 100 µM.
The compound `CC1CCC(=O)C(C(O)CC2CC(=O)N(c3ccccc3)C(=O)C2)C1` (configuration not stated) yielded a TGI of more than 100 µM.
For the compound `COC(=O)C1CC23C4=C(CCC41)CCC1CN4CC(C)C(CC(OC(C)=O)C12COC(C)=O)C43O` (configuration not stated), the TGI is more than 100 µM.
Regarding `CC(=O)N[C@H](C(=O)N[C@@H](CCCNC(=N)N)C(=O)N[C@@H](CCCCN)C(=O)N[C@@H](CCCNC(=N)N)C(=O)NC(C(=O)N[C@@H](CC(C)C)C(=O)N[C@@H](CCCNC(=N)N)C(=O)N[C@@]1(C)CCC/C=C\CCC[C@@](C)(C(=O)N[C@@H](CCCNC(=N)N)C(=O)N[C@@H](CCC(=O)O)C(=O)N[C@@H](CC(C)C)C(=O)N[C@H](C(=O)N[C@@H](CCC(=O)O)C(N)=O)C(C)C)NC(=O)[C@H](CCC(N)=O)NC(=O)[C@H](CC(C)C)NC(=O)[C@H](CC(C)C)NC1=O)[C@@H](C)O)C(C)C` (stereo partly drawn) (Ac-VRKR[ξThr(3R)]LR[S5]LLQ[S5]RELVE-NH2; staple (Z) 8-12), the GI50 is 5.78 µM and the TGI worked out at 13.2 µM.
`N#C/C(=C\c1cc(O)ccc1O)C(N)=O`: the TGI is more than 100 µM.
In the case of `COc1cccc(C2=C(c3cn(C)c4cc(F)ccc34)C(=O)NC2=O)c1`, the GI50 was more than 25 µM and the TGI is more than 25 µM.
Turning to `ClCc1ccc(Cn2cnc3c(Cl)ncnc32)cc1`, the GI50 is 14.2 µM and the TGI came out at 22.9 µM.
For `Clc1ccc2ncc(-c3cccc(NC4CNC4)n3)n2c1` the same measures were 3.53 µM and 35.5 µM.
As to `CCCCCCCCCC(CCCC(O)CC(=O)O)OC1OC(COC2OC(C)C(OC(C)=O)C(O)C2O)C(O)C(O)C1OC1OC(CO)C(O)C(O)C1OC1OC(C)C(OC(=O)CC(C)C)C(O)C1O` (configuration not stated), the GI50 was more than 35 µM and the TGI is more than 35 µM.
As for `Cc1ccc(Cl)cc1NC(=O)c1cc2ccccc2cc1O`, the GI50 was 0.323 µM and the TGI turned out to be 3.19 µM.
On to `CCN(CC)c1ccc2cc(C(=O)NCc3ccccc3)c(=N)oc2c1`, for which the TGI is more than 100 µM.
As for `NC(=O)NNCc1c(-c2ccccc2)no[n+]1[O-]`, the TGI is more than 100 µM.
Compound `CCCCCCCCCCSC(=O)NC` returned a TGI of more than 100 µM.
Regarding `CCCCCCCCCCCCCCCCCCOc1ccccc1CC(=O)OCC[N+](CC)(CC)CC`, the GI50 was 4.03 µM and the TGI was 11 µM.
For `COC1CC(C)([N+](=O)[O-])C(O)C(C)O1` (configuration not stated), the TGI was more than 100 µM.
Compound `CCc1cc2c(c3c1CCCC3)CC1(Cc3ccc(C(=O)OC)cc3C1)C2` (configuration not stated) displayed a TGI of more than 100 µM.
